The target of assay [1] is T1, SARS-CoV-2 spike, Wuhan (A.1), on pseudotyped lentivirus (SARS-CoV-2). Kind of assay: cell-based or functional assay.
Assay [2] concerns the target T2, CoV-2 Wuhan-Hu1 spike RBD (BLI analyte) (SARS-CoV-2).
T2 construct: domain: RBD
The assay can be described thus: BLI, decoy immobilized as ligand, RBD as analyte.

Assay [3] has as its target T3, yeast-displayed SARS-CoV-2 Delta + RBD (SARS-CoV-2).
T3 construct: range […]
Kind of assay: yeast-displayed RBD, decoy titration, flow cytometry.

The target in assay [4] is T4, yeast-displayed SARS-CoV-2 Omicron BA.2 RBD (SARS-CoV-2).
T4 construct: range […]
Described as above.

Assay [5] addresses T5, yeast-displayed SARS-CoV-2 Lambda RBD (SARS-CoV-2).
T5 construct: range […]
Described as above.

Assay [6] deals with T6, yeast-displayed SARS-CoV-2 Delta RBD (SARS-CoV-2).
T6 construct: range […]
The description is as above.

For assay [7], the target named is T7, yeast-displayed SARS-CoV-2 Omicron BA.1 RBD (SARS-CoV-2).
T7 construct: range […]
Described as above.

Assay [8] deals with T8, yeast-displayed SARS-CoV-2 Mu RBD (SARS-CoV-2).
T8 construct: range […]
The description is as above.

The target in assay [9] is T9, yeast-displayed SARS-CoV-2 (Wuhan-Hu-1) RBD (SARS-CoV-2).
T9 construct: range […]
Kind of assay: yeast display flow cytometry, titration of decoy on RBD yeast. Background: A flow cytometer gives signals particle by particle.

The target of assay [10] is T9, yeast-displayed SARS-CoV-2 (Wuhan-Hu-1) …. Kind of assay: yeast-displayed RBD, decoy titration, flow cytometry.
Assay [11] concerns the target yeast-displayed NL63 RBD (human coronavirus NL63). The description is as above.
The target of assay [12] is T9, yeast-displayed SARS-CoV-2 (Wuhan-Hu-1) …. The description is as above. This is another data set of the same source.
Assay [13] concerns the target T1, SARS-CoV-2 spike, Wuhan (A.1), on …. The assay can be described thus: cell-based or functional assay. The source holds these as a separate data set.
The target of assay [14] is SARS-CoV-2 spike delta on pseudotyped lentivirus (SARS-CoV-2). Kind of assay: cell-based or functional assay.

Where two headings read alike, the source gives them in different places.

B1: hAce2-Variant1-IgG4 soluble decoy fusion protein (Fc fusion)
chain: QSTIEEQAKTFLDMFNHKAEDLFYQSSLAAWNYNTNITEENVQNMNNAGDKWSAFLKEQSTFAQMYPLQEIQNPTVKLQLQALQQNGSSVLSEDKSKRLNTILNTMSTIYSTGKVCNPDNPQECLLLEPGLNEIMANSLDYNERLWAWESWRSEVGKQLRPLYEEYVVLKNEMARANHYEDYGDYWRGDYEVNGVDGYDYSRGQLIEDVEHTFEEIKPLYEHLHAYVRAKLMNAYPSYISPIGCLPAHLLGDMWGRFWTNLYSLTVPFGQKPNIDVTDAMVDQAWDAQRIFKEAEKFFVSVGLPNMTQGFWEYSMLTDPGNVQKAVCHPTAWDLGKGDFRILMCTKVTMDDFLTAHHEMGHIQYDMAYAAQPFLLRNGANEGFHEAVGEIMSLSAATPKHLKSIGLLSPDFQEDNETEINFLLKQALTIVGTLPFTYMLEKWRWMVFKGEIPKDQWMKKWWEMKREIVGVVEPVPHDETYCDPASLFHVSNDYSFIRYYTRTLYQFQFQEALCQAAKHEGPLHKCDISNSTEAGQKLFNMLRLGKSEPWTLALENVVGAKNMNVRPLLNYFEPLFTWLKDQNKNSFVGWSTDWSPYAD[gap - human IgG4 Fc and a few adjoining residues]
For the molecule B1, the “IC50, neutralization assay” value in [1] amounted to 0.09 µg/mL.

B2: hAce2-Variant2-IgG1 soluble decoy fusion protein (Fc fusion)
chain: QSTIEEQAKTFLDMFNHKAEDLFYQSSLAAWNYNTNITEENVQNMNNAGDKWSAFLKEQSTFAQMYPLQEIQNPTVKLQLQALQQNGSSVLSEDKSKRLNTILNTMSTIYSTGKVCNPDNPQECLLLEPGLNEIMANSLDYNERLWAWESWRSEVGKQLRPLYEEYVVLKNEMARANHYEDYGDYWRGDYEVNGVDGYDYSRGQLIEDVEHTFEEIKPLYEHLHAYVRAKLMNAYPSYISPIGCLPAHLLGDMWGRFWTNLYSLTVPFGQKPNIDVTDAMVDQAWDAQRIFKEAEKFFVSVGLPNMTQGFWEYSMLTDPGNVQKAVCLPTAWDLGKGDFRILMCTKVTMDDFLTAHHEMGHIQYDMAYAAQPFLLRNGANEGFHEAVGEIMSLSAATPKHLKSIGLLSPDFQEDNETEINFLLKQALTIVGTLPFTYMLEKWRWMVFKGEIPKDQWMKKWWEMKREIVGVVEPVPHDETYCDPASLFHVSNDYSFIRYYTRTLYQFQFQEALCQAAKHEGPLHKCDISNSTEAGQKLFNMLRLGKSEPWTLALENVVGAKNMNVRPLLNYFEPLFTWLKDQNKNSFVGWSTDWSPYAD[gap - human IgG1 Fc]
As for B2, the Kd (usually the free concentration of one partner at which half of the binding sites on the other are occupied at equilibrium, for simple one-to-one binding) came out at 0.21 nM in assay [2]; 0.21 nM in assay [3]; 0.024 nM in assay [4]; 0.2 nM in [5]; 0.21 nM in [6]; 0.031 nM in assay [7]. The dissociation constant Kd in assay [8] turned out to be 0.1 nM; in assay [10] it was 0.14 nM; in assay [11], 0.22 nM; in [12], 0.16 nM. In addition, the EC50 (read off the curve) (as a rule, the concentration giving half of the maximal effect) in assay [9] is ~0.1 nM. Besides, the “IC50, pseudotyped lentivirus neutralization” value in assay [13] and in assay [14] was 0.019 µg/mL each time.

The values above are taken from patent US20230338478A1 (University of Pennsylvania, published 2023).
